Experimental data published in the supplement of paper PMC8728848.
This is one part of the list.

What was measured:
Experiment in all cases: glycan array binding signal (z-score within array); higher = stronger binding
Conditions in all cases: glycan notation: IUPAC condensed, linker removed
[1] = target: Neu5Ac(a2-6)Gal(b1-4)GlcNAc(b1-3)Gal(b1-4)GlcNAc
Method in brief: (§1)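 Negative Z-scores can be read as non-binding. The Z-score is calculated within each array and then averaged across arrays of one protein sequence at different concentrations or buffers and across linkers. Arrays, 3228 in all, were curated from the Consortium for Functional Glycomics database and kept only where the protein sequence was available.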

[2] = target: Neu5Ac(a2-6)Gal(b1-4)GlcNAc(b1-3)Gal(b1-4)GlcNAc(b1-3)Gal(b1-4)GlcNAc
Method in brief: as §1

[3] = target: Neu5Ac(a2-6)Gal(b1-4)GlcNAc(b1-3)Gal(b1-4)[Fuc(a1-3)]GlcNAc(b1-3)Gal(b1-4)[Fuc(a1-3)]GlcNAc
Method in brief: as §1

[4] = target: Neu5Ac(a2-6)Gal(b1-4)GlcNAc(b1-3)GalNAc
Method in brief: as §1

[5] = target: Neu5Ac(a2-6)Gal(b1-4)GlcNAc6S
Method in brief: as §1

Neu5Ac(a2-6)GalNAc = target: Neu5Ac(a2-6)GalNAc
Method in brief: as §1

[6] = target: Neu5Ac(a2-6)GalNAc(b1-4)GlcNAc
Method in brief: as §1

[7] = target: Neu5Ac(a2-6)GlcNAc(b1-4)GlcNAc
Method in brief: as §1

[8] = target: Neu5Ac(a2-6)GlcNAc(b1-4)GlcNAc(b1-4)GlcNAc
Method in brief: as §1

Neu5Ac(a2-8)Neu5Ac = target: Neu5Ac(a2-8)Neu5Ac
Method in brief: as §1

[9] = target: Neu5Ac(a2-8)Neu5Ac(a2-3)Gal(b1-4)Glc
Method in brief: as §1

[10] = target: Neu5Ac(a2-8)Neu5Ac(a2-3)[GalNAc(b1-4)]Gal(b1-4)Glc
Method in brief: as §1

[11] = target: Neu5Ac(a2-8)Neu5Ac(a2-8)Neu5Ac
Method in brief: as §1

[12] = target: Neu5Ac(a2-8)Neu5Ac(a2-8)Neu5Ac(a2-3)Gal(b1-4)Glc
Method in brief: as §1

[13] = target: Neu5Ac(a2-8)Neu5Ac(a2-8)Neu5Ac(a2-3)[GalNAc(b1-4)]Gal(b1-4)Glc
Method in brief: as §1

[14] = target: Neu5Ac(a2-8)Neu5Ac(a2-8)Neu5Ac(a2-8)Neu5Ac(a2-3)[GalNAc(b1-4)]Gal(b1-4)Glc
Method in brief: as §1

[15] = target: Neu5Ac(b2-6)Gal(b1-4)GlcNAc
Method in brief: as §1

Neu5Ac(b2-6)GalNAc = target: Neu5Ac(b2-6)GalNAc
Method in brief: as §1

[16] = target: Neu5Ac9Ac(a2-3)Gal(b1-3)GlcNAc
Method in brief: as §1

[17] = target: Neu5Ac9Ac(a2-3)Gal(b1-4)GlcNAc
Method in brief: as §1

[18] = target: Neu5Ac9Ac(a2-6)Gal(b1-4)GlcNAc
Method in brief: as §1

[19] = target: Neu5Gc(a2-3)Gal(b1-3)GlcNAc
Method in brief: as §1

[20] = target: Neu5Gc(a2-3)Gal(b1-3)[Fuc(a1-4)]GlcNAc
Method in brief: as §1

Neu5Gc(a2-3)Gal(b1-4)Glc = target: Neu5Gc(a2-3)Gal(b1-4)Glc
Method in brief: as §1

[21] = target: Neu5Gc(a2-3)Gal(b1-4)GlcNAc
Method in brief: as §1

[22] = target: Neu5Gc(a2-3)Gal(b1-4)[Fuc(a1-3)]GlcNAc
Method in brief: as §1

[23] = target: Neu5Gc(a2-6)Gal(b1-4)GlcNAc
Method in brief: as §1

Neu5Gc(a2-6)GalNAc = target: Neu5Gc(a2-6)GalNAc
Method in brief: as §1

[24] = target: Neu5Gc(b2-6)Gal(b1-4)GlcNAc
Method in brief: as §1

B1: DC-ASPGR (Homo sapiens), CLC10_HUMAN (protein)
chain: LDQNSKFQRDLVTLRTDFSNFTSNTVAEIQALTSQGSSLEETIASLKAEVEGFKQERQAVHSEMLLRVQQLVQDLKKLTCQVATLNNNASTEGTCCPVNWVEHQDSCYWFSHSGMSWAEAEKYCQLKNAHLVVINSREEQNFVQKYLGSAYTWMGLSDPEGAWKWVDGTDYATGFQNWKPGQPDDWQGHGLGGGEDCAHFHPDGRWNDDVCQRPYHWVCEAGLGQTSQESHVEPKSCDKTHTCPPCPAPELLGGPSVFLFPPKPKDTLMISRTPEVTCVVVDVSHEDPEVKFNWYVDGVEVHNAKTKPREEQFNSTYRVVSVLTVLHQDWLNGKEYKCKVSNKGLPSSIEKTISKAKGQPREPQVYTLPPSQEEMTKNQVSLTCLVKGFYPSDIAVEWESNGQPENNYKTTPPVLDSDGSFFLYSRLTVDKSRWQEGNVFSCSVMHEALHNHYTQK
glycan array binding signal (z-score) [1]: -0.23 | glycan array binding signal (z-score) [2]: -0.27 | glycan array binding signal (z-score) [3]: -0.319 | glycan array binding signal (z-score) [4]: 0.14 | glycan array binding signal (z-score) [5]: -0.117 | glycan array binding signal (z-score) (Neu5Ac(a2-6)GalNAc): 1.36 | glycan array binding signal (z-score) [6]: 1.09 | glycan array binding signal (z-score) [7]: -0.141 | glycan array binding signal (z-score) [8]: -0.064 | glycan array binding signal (z-score) (Neu5Ac(a2-8)Neu5Ac): -0.131 | glycan array binding signal (z-score) [9]: -0.223 | glycan array binding signal (z-score) [10]: 1.71 | glycan array binding signal (z-score) [11]: -0.096 | glycan array binding signal (z-score) [12]: -0.244 | glycan array binding signal (z-score) [13]: 0.973 | glycan array binding signal (z-score) [14]: 1.03 | glycan array binding signal (z-score) [15]: -0.157 | glycan array binding signal (z-score) (Neu5Ac(b2-6)GalNAc): -0.194 | glycan array binding signal (z-score) [16]: -0.192 | glycan array binding signal (z-score) [17]: -0.099 | glycan array binding signal (z-score) [18]: -0.235 | glycan array binding signal (z-score) [19]: -0.3 | glycan array binding signal (z-score) [20]: -0.188 | glycan array binding signal (z-score) (Neu5Gc(a2-3)Gal(b1-4)Glc): -0.215 | glycan array binding signal (z-score) [21]: -0.231 | glycan array binding signal (z-score) [22]: -0.224 | glycan array binding signal (z-score) [23]: -0.279 | glycan array binding signal (z-score) (Neu5Gc(a2-6)GalNAc): -0.263 | glycan array binding signal (z-score) [24]: -0.266
